# Whole data set: some 4,500 sequences, median “median log2 fold change of GCK-ALFA target abundance (FLAG IP / Myc IP barcode read proportion)” near 0.078, cut for the lowest 2% near -0.6. The list shows a part of the results.
# B1: GBRAP_184_5170 (protein)
# chain: MIEEFEIEVENEEEAEKKMEEIKEAVKGKKAELYVLVKAPEITEEIAKTILEKLKEIKDEGYATKITVDFEGEVDEEVMDVLVEGGKEAGINVVIALPEE
# B2: GBRAP_80_6844 (protein)
# chain: DEEALKKALEELEKLLPESAEDIKEIVELARSLGIPNSVITDLLNAIAELAKVDKEKAKEFIKELLEELKELLEEGDEEGAKTLIRASAGEALMEAEELE
# B3: GBRAP_184_5346 (protein)
# chain: MVGVIEITGEEAESDLEGVLKRVEELLADPDLDTLIIILEDVSFETAKELIERVGELAKKAGAKNVIVDVESDLNEEEIDELVEIADKYGVRLVVAIPEE
# B4: GBRAP_95_7043 (protein)
# chain: DDLVLAAESDAEVLETAVDLGDEEAARRAARRLLELLLELPEDKVKLDLSVESVKVIIEVAKEEFDKETAIEALKKLAKFLTNKEAKEVAEKAIEELEKE
# B5: GBRAP_160_4066 (protein)
# chain: EERLKKLEEEIDALIDEAIAMMENETHEERVTIARVLGGEVVLLLSEDESVSDEAEDEADAIMDATVATIEANPDLTQEEITALLTAAGEAIKEALRKHS
# B6: GBRAP_52_5876 (protein)
# chain: SLEEAVALLEEAVAATKAGDEEEAEAILKRIVEEFSEETIVAAVKRLAEKVLGKSLEEAEAFFETVERLADVLLEMGKSEETASLMEAIAGATLYKVEQR
# B7: GBRAP_80_6837 (protein)
# chain: ARARLEAALARLAELLPELAPELRAMVDRLLAAGVPVEVLADFVEALVELAELDPERAAALLREAIAEVEELLAEGDLEGAIAVIRGYAGDALVEVEELE
# B8: GBRAP_160_4376 (protein)
# chain: SKELEELIKEIKELLKEFEEEAKDLTPEEVRILAIGVLSEIAALVFENEAVSEETKDKIMEIIDEAIEEIKKLKDAKPEEIVAVTKEAVEKIIELIKKEI
# Target: GABARAP, O95166
# Experiment: median log2 fold change of GCK-ALFA target abundance (FLAG IP / Myc IP barcode read proportion) (log2 ratio); each designed protein is fused to an ALFA-tag nanobody in HEK293 cells to bring the named protein to FLAG-tagged glucokinase (GCK); Myc marks an untargeted standard; higher = target protein stabilised (more abundant)
# Conditions: target protein: 3xFLAG-MCP-GCK-ALFA reporter; HEK293 landing pad (RPLP)
# How it was run: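 Sequencing of reverse-transcribed, amplified circular RNA barcodes from anti-FLAG and anti-Myc immunoprecipitates provided the readout for an ALFA-nanobody-fused binder library recombined into HEK293 landing-pad cells. Those cells were induced with 2 μg mL^−1 doxycycline, transfected with a plasmid expressing a FLAG-tagged target and a Myc-tagged standard, and lysed after 48 h. Target abundance is the per-binder median log2 ratio of FLAG to Myc barcode read proportions. Only barcodes at a proportion of ≥10^−7 in both replicates and binders with ≥3 barcodes per replicate were kept, with a 10^−6 pseudocount added before the two replicates were pooled.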
# Sequence of GABARAP, O95166 (O95166 whole entry, the tested form may be a part): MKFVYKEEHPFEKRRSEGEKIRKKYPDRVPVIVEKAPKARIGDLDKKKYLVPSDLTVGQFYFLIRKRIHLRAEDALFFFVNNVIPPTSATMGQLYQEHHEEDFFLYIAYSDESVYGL
row,Binder,median log2 fold change
1,B1,-0.0969
2,B2,0.15
3,B3,0.113
4,B4,0.251
5,B5,-0.343
6,B6,0.0101
7,B7,0.0199
8,B8,0.0734
